# These are yes or no findings as the source states them, for the method shown. Binding seen in cells or lysates may run through a third protein. Some results given as binding are weak or reduced against the parent protein; the word gives no strength.
# The chains behind the UniProt entries cited, without tags or fusion partners.
# UniProt P97302: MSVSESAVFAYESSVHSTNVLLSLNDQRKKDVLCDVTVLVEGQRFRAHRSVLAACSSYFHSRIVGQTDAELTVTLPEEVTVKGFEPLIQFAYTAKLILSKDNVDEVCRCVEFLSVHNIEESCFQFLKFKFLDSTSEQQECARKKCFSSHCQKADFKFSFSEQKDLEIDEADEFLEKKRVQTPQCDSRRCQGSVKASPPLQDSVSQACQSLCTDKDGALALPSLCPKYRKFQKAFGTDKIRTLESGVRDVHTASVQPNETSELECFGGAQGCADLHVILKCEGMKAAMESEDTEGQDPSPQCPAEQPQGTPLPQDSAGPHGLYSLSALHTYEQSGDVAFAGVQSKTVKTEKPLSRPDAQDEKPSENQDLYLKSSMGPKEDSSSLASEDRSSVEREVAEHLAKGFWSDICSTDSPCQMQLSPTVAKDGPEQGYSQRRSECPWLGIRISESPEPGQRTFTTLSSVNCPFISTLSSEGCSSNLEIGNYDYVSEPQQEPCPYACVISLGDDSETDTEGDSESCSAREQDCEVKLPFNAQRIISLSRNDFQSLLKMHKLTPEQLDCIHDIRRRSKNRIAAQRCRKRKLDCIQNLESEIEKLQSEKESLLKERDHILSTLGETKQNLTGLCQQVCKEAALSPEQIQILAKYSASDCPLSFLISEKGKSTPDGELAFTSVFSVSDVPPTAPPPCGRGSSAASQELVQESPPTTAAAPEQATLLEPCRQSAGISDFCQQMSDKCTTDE
# UniProt P35639: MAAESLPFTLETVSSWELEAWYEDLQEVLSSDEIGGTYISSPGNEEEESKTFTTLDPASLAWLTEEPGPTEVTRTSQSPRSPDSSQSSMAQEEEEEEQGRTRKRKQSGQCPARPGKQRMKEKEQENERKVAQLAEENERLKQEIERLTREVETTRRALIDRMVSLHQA
# UniProt Q06348: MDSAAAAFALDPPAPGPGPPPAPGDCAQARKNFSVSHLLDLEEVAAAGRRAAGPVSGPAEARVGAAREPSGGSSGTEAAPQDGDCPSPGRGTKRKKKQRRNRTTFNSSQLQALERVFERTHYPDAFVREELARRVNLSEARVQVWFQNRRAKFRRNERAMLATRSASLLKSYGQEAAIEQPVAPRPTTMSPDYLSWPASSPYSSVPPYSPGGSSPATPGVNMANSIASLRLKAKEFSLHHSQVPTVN
# UniProt Q61312: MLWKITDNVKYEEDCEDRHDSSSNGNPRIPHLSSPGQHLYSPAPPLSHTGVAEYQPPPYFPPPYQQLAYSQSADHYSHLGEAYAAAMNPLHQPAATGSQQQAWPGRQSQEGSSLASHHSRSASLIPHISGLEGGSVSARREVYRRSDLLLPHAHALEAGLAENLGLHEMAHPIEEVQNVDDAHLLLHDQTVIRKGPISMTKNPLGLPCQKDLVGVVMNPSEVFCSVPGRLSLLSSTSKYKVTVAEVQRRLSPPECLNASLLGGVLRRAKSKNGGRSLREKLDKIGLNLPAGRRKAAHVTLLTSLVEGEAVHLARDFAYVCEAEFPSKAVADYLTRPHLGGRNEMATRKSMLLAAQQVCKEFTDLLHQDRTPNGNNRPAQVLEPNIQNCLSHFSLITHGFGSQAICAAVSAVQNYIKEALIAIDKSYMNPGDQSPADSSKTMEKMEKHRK
# T1: Arid4b (mouse (endogenous in CJ9 mESCs)) (UniProt A2CG63)
# T1 sequence: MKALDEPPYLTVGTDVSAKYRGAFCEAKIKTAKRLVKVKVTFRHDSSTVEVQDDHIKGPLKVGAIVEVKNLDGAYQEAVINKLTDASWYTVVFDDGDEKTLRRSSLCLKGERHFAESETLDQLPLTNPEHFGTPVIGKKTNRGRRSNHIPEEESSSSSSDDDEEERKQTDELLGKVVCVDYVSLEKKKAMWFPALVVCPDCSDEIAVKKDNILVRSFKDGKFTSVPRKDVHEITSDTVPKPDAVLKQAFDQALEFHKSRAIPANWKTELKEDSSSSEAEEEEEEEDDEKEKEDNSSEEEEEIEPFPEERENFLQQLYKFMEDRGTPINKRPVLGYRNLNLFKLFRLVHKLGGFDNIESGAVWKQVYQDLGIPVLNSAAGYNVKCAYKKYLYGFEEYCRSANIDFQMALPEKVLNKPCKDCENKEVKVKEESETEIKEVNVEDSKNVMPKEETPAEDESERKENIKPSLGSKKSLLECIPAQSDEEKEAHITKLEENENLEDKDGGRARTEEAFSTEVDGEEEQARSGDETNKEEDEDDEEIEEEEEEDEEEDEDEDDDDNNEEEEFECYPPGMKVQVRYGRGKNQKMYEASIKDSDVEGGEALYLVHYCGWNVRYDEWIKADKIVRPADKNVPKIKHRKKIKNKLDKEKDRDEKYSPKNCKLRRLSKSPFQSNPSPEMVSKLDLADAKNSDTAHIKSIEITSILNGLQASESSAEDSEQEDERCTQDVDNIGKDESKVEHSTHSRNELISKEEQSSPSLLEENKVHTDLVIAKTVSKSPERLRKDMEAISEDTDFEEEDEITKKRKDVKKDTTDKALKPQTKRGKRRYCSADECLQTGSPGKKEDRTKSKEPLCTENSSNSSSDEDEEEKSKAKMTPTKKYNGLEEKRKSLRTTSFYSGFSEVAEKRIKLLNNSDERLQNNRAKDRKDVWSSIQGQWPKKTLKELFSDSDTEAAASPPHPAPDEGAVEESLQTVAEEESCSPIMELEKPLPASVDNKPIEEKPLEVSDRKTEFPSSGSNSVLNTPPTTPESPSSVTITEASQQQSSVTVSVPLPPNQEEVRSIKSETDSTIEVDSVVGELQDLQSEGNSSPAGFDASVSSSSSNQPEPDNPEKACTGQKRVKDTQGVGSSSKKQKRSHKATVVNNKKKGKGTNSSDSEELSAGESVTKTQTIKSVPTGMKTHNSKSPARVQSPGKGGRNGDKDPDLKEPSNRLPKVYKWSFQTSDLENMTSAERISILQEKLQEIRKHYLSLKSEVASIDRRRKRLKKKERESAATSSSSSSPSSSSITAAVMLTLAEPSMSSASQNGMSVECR
# Assays:
# [1] = target: T1, Arid4b (mouse (endogenous in CJ9 mESCs)); test: co-IP; endogenous co-IP from 400 ug wild-type (CJ9) mESC nuclear extract with 5 ug anti-Arid4b antibody, protein-G magnetic beads, extra washes in NP-40 buffer; controls: rabbit IgG IP and Arid4b antibody IP from arid4b-delta nuclear extract; Western blot
# [2] = target: T1, Arid4b (mouse (endogenous in CJ9 mESCs)); test: proximity ligation; Duolink In Situ Red kit with Arid4b (rabbit) and Tfap2c (mouse) primary antibodies on wild-type (CJ9) mESCs; confocal microscopy; control without primary antibodies
# [3] = target: T1, Arid4b (mouse (endogenous in CJ9 mESCs)); test: co-IP; endogenous co-IP from 400 ug wild-type (CJ9) mESC nuclear extract with 5 ug anti-Arid4b antibody, protein-G magnetic beads, extra washes in NP-40 buffer; controls: rabbit IgG IP and Arid4b antibody IP from arid4b-delta nuclear extract; Western blot; remark: listed apart in the source
binding [1],binding [2],binding [3],Molecule
no binding,,,Bach1 (from UniProt P97302 1-739)
no binding,,,Ddit3 (from UniProt P35639 1-168)
no binding,,,Prrx2 (from UniProt Q06348 1-247)
binds weakly,binds,,Tfap2c (from UniProt Q61312 1-449)
,,binds,"Sin3a (protein, UniProt Q60520 1-1274) MKRRLDDQESPVYAAQQRRIPGSTEAFSHQHRVLAPAPPVYEAVSETMQSATGIQYSVAPNYQVSAVPQSSGSHGPAIAAVHSSHHHPTAVQPHGGQVVQSHAHPAPPVAPVQGQQQFQRLKVEDALSYLDQVKLQFGSQPQVYNDFLDIMKEFKSQSIDTPGVISRVSQLFKGHPDLIMGFNTFLPPGYKIEVQTNDMVNVTTPGQVHQIPTHGIQPQPQPPPQHPSQPSSQSAPTPAQPAPQPTAAKVSKPSQLQAHTPASQQTPPLPPYASPRSPPVQPHTPVTISLGTAPSLQNNQPVEFNHAINYVNKIKNRFQGQPDIYKAFLEILHTYQKEQRNAKEAGGNYTPALTEQEVYAQVARLFKNQEDLLSEFGQFLPDANSSVLLSKTTAEKVDSVRNDHGGTVKKPQLNNKPQRPSQNGCQIRRHSGTGATPPVKKKPKLMSLKESSMADASKHGVGTESLFFDKVRKALRSAEAYENFLRCLVIFNQEVISRAELVQLVSPFLGKFPELFNWFKNFLGYKESVHLESFPKERATEGIAMEIDYASCKRLGSSYRALPKSYQQPKCTGRTPLCKEVLNDTWVSFPSWSEDSTFVSSKKTQYEEHIYRCEDERFELDVVLETNLATIRVLEAIQKKLSRLSAEEQAKFRLDNTLGGTSEVIHRKALQRIYADKAADIIDGLRKNPSIAVPIVLKRLKMKEEEWREAQRGFNKVWREQNEKYYLKSLDHQGINFKQNDTKVLRSKSLLNEIESIYDERQEQATEENAGVPVGPHLSLAYEDKQILEDAAALIIHHVKRQTGIQKEDKYKIKQIMHHFIPDLLFAQRGDLSDVEEEEEEEMDVDEATGAPKKHNGVGGSPPKSKLLFSNTAAQKLRGMDEVYNLFYVNNNWYIFMRLHQILCLRLLRICSQAERQIEEENREREWEREVLGIKRDKSDSPAIQLRLKEPMDVDVEDYYPAFLDMVRSLLDGNIDSSQYEDSLREMFTIHAYIAFTMDKLIQSIVRQLQHIVSDEVCVQVTDLYLAENNNGATGGQLNSQTSRSLLESAYQRKAEQLMSDENCFKLMFIQSQGQVQLTVELLDTEEENSDDPVEAERWSDYVERYMSSDTTSPELREHLAQKPVFLPRNLRRIRKCQRGREQQEKEGKEGNSKKTMENVESLDKLECRFKLNSYKMVYVIKSEDYMYRRTALLRAHQSHERVSKRLHQRFQAWVDKWTKEHVPREMAAETSKWLMGEGLEGLVPCTTTCDTETLHFVSINKYRVKYGTVFKAP"

# Source: paper PMC8068770
